Source: the supplement of paper PMC8728848
This is one part of the list.

What was measured:
Assay in all cases: glycan array binding signal (z-score within array); higher = stronger binding
Conditions in all cases: glycan notation: IUPAC condensed, linker removed
[1] = biological target: Gal(b1-2)Gal
Procedure, shortened: (§1)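 Glycan array data came from 3228 arrays in the Consortium for Functional Glycomics database, and only arrays with an available protein sequence were kept. Glycan names were put into IUPAC-condensed notation, and columns mapping to the same glycan were averaged. The binding signal is a within-array Z-score, averaged across arrays of one protein sequence run at different concentrations or buffers and across linkers. A negative Z-score can be read as non-binding.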

[2] = biological target: Gal(b1-3)Gal
Procedure, shortened: as §1

[3] = biological target: Gal(b1-3)Gal(b1-4)GlcNAc
Procedure, shortened: as §1

[4] = biological target: Gal(b1-3)GalNAc
Procedure, shortened: as §1

[5] = biological target: Gal(b1-3)GalNAc(a1-3)[Fuc(a1-2)]Gal(b1-4)Glc
Procedure, shortened: as §1

[6] = biological target: Gal(b1-3)GalNAc(a1-3)[Fuc(a1-2)]Gal(b1-4)GlcNAc
Procedure, shortened: as §1

[7] = biological target: Gal(b1-3)GalNAc(b1-3)Gal
Procedure, shortened: as §1

[8] = biological target: Gal(b1-3)GalNAc(b1-3)Gal(a1-4)Gal(b1-4)Glc
Procedure, shortened: as §1

[9] = biological target: Gal(b1-3)GalNAc(b1-4)Gal(b1-4)Glc
Procedure, shortened: as §1

[10] = biological target: Gal(b1-3)GalNAc(b1-4)[Neu5Ac(a2-3)]Gal(b1-4)Glc
Procedure, shortened: as §1

[11] = biological target: Gal(b1-3)GlcNAc
Procedure, shortened: as §1

[12] = biological target: Gal(b1-3)GlcNAc(a1-3)Gal(b1-4)GlcNAc
Procedure, shortened: as §1

[13] = biological target: Gal(b1-3)GlcNAc(a1-6)Gal(b1-4)GlcNAc
Procedure, shortened: as §1

[14] = biological target: Gal(b1-3)GlcNAc(b1-2)Man
Procedure, shortened: as §1

[15] = biological target: Gal(b1-3)GlcNAc(b1-2)Man(a1-3)[Gal(b1-3)GlcNAc(b1-2)Man(a1-6)]Man(b1-4)GlcNAc(b1-4)GlcNAc
Procedure, shortened: as §1

[16] = biological target: Gal(b1-3)GlcNAc(b1-2)Man(a1-3)[Gal(b1-3)GlcNAc(b1-2)Man(a1-6)]Man(b1-4)GlcNAc(b1-4)[Fuc(a1-6)]GlcNAc
Procedure, shortened: as §1

[17] = biological target: Gal(b1-3)GlcNAc(b1-2)Man(a1-3)[GlcNAc(b1-4)][Gal(b1-3)GlcNAc(b1-2)Man(a1-6)]Man(b1-4)GlcNAc(b1-4)GlcNAc
Procedure, shortened: as §1

[18] = biological target: Gal(b1-3)GlcNAc(b1-2)[Gal(b1-3)GlcNAc(b1-6)]Man(a1-6)[Gal(b1-3)GlcNAc(b1-2)Man(a1-3)]Man(b1-4)GlcNAc(b1-4)GlcNAc
Procedure, shortened: as §1

[19] = biological target: Gal(b1-3)GlcNAc(b1-3)Gal(b1-3)GlcNAc
Procedure, shortened: as §1

[20] = biological target: Gal(b1-3)GlcNAc(b1-3)Gal(b1-4)Glc
Procedure, shortened: as §1

[21] = biological target: Gal(b1-3)GlcNAc(b1-3)Gal(b1-4)GlcNAc
Procedure, shortened: as §1

[22] = biological target: Gal(b1-3)GlcNAc(b1-3)Gal(b1-4)GlcNAc(b1-2)Man(a1-3)[Gal(b1-3)GlcNAc(b1-3)Gal(b1-4)GlcNAc(b1-2)Man(a1-6)]Man(b1-4)GlcNAc(b1-4)GlcNAc
Procedure, shortened: as §1

[23] = biological target: Gal(b1-3)GlcNAc(b1-3)Gal(b1-4)GlcNAc(b1-2)[Gal(b1-3)GlcNAc(b1-3)Gal(b1-4)GlcNAc(b1-6)]Man(a1-6)[Gal(b1-3)GlcNAc(b1-3)Gal(b1-4)GlcNAc(b1-2)Man(a1-3)]Man(b1-4)GlcNAc(b1-4)[Fuc(a1-6)]GlcNAc
Procedure, shortened: as §1

[24] = biological target: Gal(b1-3)GlcNAc(b1-3)Gal(b1-4)GlcNAc(b1-3)Gal(b1-4)GlcNAc(b1-2)[Gal(b1-3)GlcNAc(b1-3)Gal(b1-4)GlcNAc(b1-3)Gal(b1-4)GlcNAc(b1-6)]Man(a1-6)[Gal(b1-3)GlcNAc(b1-3)Gal(b1-4)GlcNAc(b1-3)Gal(b1-4)GlcNAc(b1-2)Man(a1-3)]Man(b1-4)GlcNAc(b1-4)[Fuc(a1-6)]GlcNAc
Procedure, shortened: as §1

[25] = biological target: Gal(b1-3)GlcNAc(b1-3)Gal(b1-4)GlcNAc(b1-6)[Gal(b1-3)GlcNAc(b1-3)]Gal(b1-4)Glc
Procedure, shortened: as §1

[26] = biological target: Gal(b1-3)GlcNAc(b1-3)Gal(b1-4)[Fuc(a1-3)]GlcNAc
Procedure, shortened: as §1

[27] = biological target: Gal(b1-3)GlcNAc(b1-3)Gal(b1-4)[Fuc(a1-3)]GlcNAc(b1-6)[Gal(b1-3)GlcNAc(b1-3)]Gal(b1-4)Glc
Procedure, shortened: as §1

[28] = biological target: Gal(b1-3)GlcNAc(b1-3)GalNAc
Procedure, shortened: as §1

[29] = biological target: Gal(b1-3)GlcNAc(b1-6)Gal(b1-4)GlcNAc
Procedure, shortened: as §1

[30] = biological target: Gal(b1-3)GlcNAc(b1-6)GalNAc
Procedure, shortened: as §1

[31] = biological target: Gal(b1-3)GlcNAc(b1-6)[Gal(b1-3)]GalNAc
Procedure, shortened: as §1

[32] = biological target: Gal(b1-3)GlcNAc6S
Procedure, shortened: as §1

[33] = biological target: Gal(b1-3)[Fuc(a1-4)]GlcNAc
Procedure, shortened: as §1

[34] = biological target: Gal(b1-3)[Fuc(a1-4)]GlcNAc(b1-2)Man
Procedure, shortened: as §1

[35] = biological target: Gal(b1-3)[Fuc(a1-4)]GlcNAc(b1-2)Man(a1-3)[Gal(b1-3)[Fuc(a1-4)]GlcNAc(b1-2)Man(a1-6)]Man(b1-4)GlcNAc(b1-4)[Fuc(a1-6)]GlcNAc
Procedure, shortened: as §1

[36] = biological target: Gal(b1-3)[Fuc(a1-4)]GlcNAc(b1-3)Gal(b1-3)[Fuc(a1-4)]GlcNAc
Procedure, shortened: as §1

[37] = biological target: Gal(b1-3)[Fuc(a1-4)]GlcNAc(b1-3)Gal(b1-4)[Fuc(a1-3)]GlcNAc
Procedure, shortened: as §1

B1: GS14009A-pdi-495-27-495 (Parabacteroides distasonis) (protein)
chain: FEEVNTDPDSPTDVPTTNLLAYSLYYTSYRLYDRWFAMDEPMTFCGYASKMTYIDESRYNFRTGVQDTNWEYLYRILNNLKDIEKRATFNETPNMLNVSKVMQVHLMQVATDRWRDVPYTDAAKMTDGILQPKYDKQEDIYPGLLATLKEAADGFADGGSDDLGEGDLLFGGDIEKWQRYCNSMRLRLAMRISEVSPALAKETVEEVMGNPTKYPIMESNDDNAFFWWIGTDPNYYEPMADGYRTRKTEYCAADVIVDHMNTREDPRRSSYFQPTKESVEAGEPKYVGYTIGAKANAVASKYSIWGARFFTDLAGFSPYMRVAEPWFCVAEASMLGWNTGISAEDAYNKAVTYSMEENSVSAEDIADYLANAGKFTNDKKQIYYEEWVAMFKQGMEGWSLYRRTGVPDNLYPAPGRPANYSNHNVPPFRSPYPDKERNLNNANCAPFDAEVVDNLWGKQMWWDTRTGVH
Q: With B1 as the binder, how does the “glycan array binding signal (z-score)” value [1] read?
A: The value was -0.447.

Q: And the “glycan array binding signal (z-score)” value [2]?
A: The value was 0.219.

Q: And the “glycan array binding signal (z-score)” value [3]?
A: Its value is 0.229.

Q: And the “glycan array binding signal (z-score)” value [4]?
A: The value was -0.394.

Q: And the “glycan array binding signal (z-score)” value [5]?
A: The value was 0.514.

Q: What about the “glycan array binding signal (z-score)” value [6] of the same binder?
A: Its value is -0.831.

Q: And the “glycan array binding signal (z-score)” value [7]?
A: Its value is -0.25.

Q: What about the “glycan array binding signal (z-score)” value [8] of the same binder?
A: The value was -0.55.

Q: And the “glycan array binding signal (z-score)” value [9]?
A: Its value is 0.001.

Q: What about the “glycan array binding signal (z-score)” value [10] of the same binder?
A: Its value is -0.004.

Q: And the “glycan array binding signal (z-score)” value [11]?
A: Its value is -0.321.

Q: What about the “glycan array binding signal (z-score)” value [12] of the same binder?
A: The value was -0.776.

Q: And the “glycan array binding signal (z-score)” value [13]?
A: Its value is -0.358.

Q: What about the “glycan array binding signal (z-score)” value [14] of the same binder?
A: The value was -0.202.

Q: And the “glycan array binding signal (z-score)” value [15]?
A: The value was 0.798.

Q: And the “glycan array binding signal (z-score)” value [16]?
A: Its value is 0.702.

Q: What about the “glycan array binding signal (z-score)” value [17] of the same binder?
A: The value was 0.341.

Q: What about the “glycan array binding signal (z-score)” value [18] of the same binder?
A: The value was -0.34.

Q: What about the “glycan array binding signal (z-score)” value [19] of the same binder?
A: The value was 0.618.

Q: And the “glycan array binding signal (z-score)” value [20]?
A: Its value is -1.07.

Q: And the “glycan array binding signal (z-score)” value [21]?
A: Its value is -0.544.

Q: And the “glycan array binding signal (z-score)” value [22]?
A: The value was 4.58.

Q: What about the “glycan array binding signal (z-score)” value [23] of the same binder?
A: Its value is 0.356.

Q: What about the “glycan array binding signal (z-score)” value [24] of the same binder?
A: Its value is 0.18.

Q: What about the “glycan array binding signal (z-score)” value [25] of the same binder?
A: Its value is -0.161.

Q: And the “glycan array binding signal (z-score)” value [26]?
A: Its value is -0.557.

Q: What about the “glycan array binding signal (z-score)” value [27] of the same binder?
A: The value was -0.233.

Q: And the “glycan array binding signal (z-score)” value [28]?
A: Its value is 0.476.

Q: What about the “glycan array binding signal (z-score)” value [29] of the same binder?
A: The value was -0.333.

Q: What about the “glycan array binding signal (z-score)” value [30] of the same binder?
A: Its value is -0.364.

Q: And the “glycan array binding signal (z-score)” value [31]?
A: Its value is 1.19.

Q: And the “glycan array binding signal (z-score)” value [32]?
A: The value was -0.46.

Q: And the “glycan array binding signal (z-score)” value [33]?
A: The value was -0.376.

Q: What about the “glycan array binding signal (z-score)” value [34] of the same binder?
A: Its value is 0.388.

Q: What about the “glycan array binding signal (z-score)” value [35] of the same binder?
A: Its value is 1.2.

Q: What about the “glycan array binding signal (z-score)” value [36] of the same binder?
A: The value was -0.267.

Q: What about the “glycan array binding signal (z-score)” value [37] of the same binder?
A: The value was -0.102.
